The other results are listed elsewhere or left out. Many values rest on one well or one pass, so single values are uncertain.
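Also: cell number obtained by counting DAPI-stained nuclei in high-throughput microscope images with image analysis software, screen run in 1,536-well plates.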

The test system of one experiment is 501Mel. The experiment in a line: cell count relative to DMSO control; melanoma cells; higher = more viable cells. The settings on record: library dose: low library concentration; 72 h.
`Nc1nc(F)nc2c1ncn2[C@@H]1O[C@H](CO)[C@@H](O)[C@@H]1O` [fludarabine] + CN(NC(=O)CC(=O)NN(C)C(=S)c1ccccc1)C(=S)c1ccccc1 [STA4783] (first compound 0.2 µM, partner dose 0.006 µM) registered a cell count of 7.16%. On the same count and under the same terms, then `Nc1ncn([C@H]2C[C@H](O)[C@@H](CO)O2)c(=O)n1` [decitabine] + c1cc(-c2cnn3cc(-c4ccc(OCCN5CCCCC5)cc4)cnc23)ccn1 [Dorsomorphin] (first compound 0.1 µM, partner dose 0.4 µM), with 119%; and `CC(=O)c1c(C)c2cnc(Nc3ccc(N4CCNCC4)cn3)nc2n(C2CCCC2)c1=O` [palbociclib] + COc1cc(N2CCC(N3CCN(C)CC3)CC2)ccc1Nc1ncc(Cl)c(Nc2ccccc2S(=O)(=O)C(C)C)n1 [NVP-TAE684] (first compound 0.04 µM, partner dose 0.08 µM), with 61.3%; and `CC(=O)O[C@@]12CO[C@@H]1C[C@H](O)[C@@]1(C)C(=O)[C@H](O)C3=C(C)[C@@H](OC(=O)[C@H](O)[C@@H](NC(=O)OC(C)(C)C)c4ccccc4)C[C@@](O)([C@@H](OC(=O)c4ccccc4)[C@H]21)C3(C)C` [Docetaxel] + CCCCCCCCCCCC1=C(O)C(=O)C=C(O)C1=O [Embelin] (first compound 0.0001 µM, partner dose 1.2 µM), with 66.9%.

For the molecule `Nc1nc(F)nc2c1ncn2[C@@H]1O[C@H](CO)[C@@H](O)[C@@H]1O` [fludarabine] + NCC(=O)Nc1ccc(-n2nc(C(F)(F)F)cc2-c2ccc3c(ccc4ccccc43)c2)cc1 [OSU03012] (first compound 0.2 µM, partner dose 1 µM), the cell count came to 4.48%. Same read-out and setting: the result for `Nc1ccn([C@@H]2O[C@H](CO)[C@@H](O)C2(F)F)c(=O)n1` [gemcitabine] + COc1cc(Nc2ncc(F)c(Nc3ccc4c(n3)NC(=O)C(C)(C)O4)n2)cc(OC)c1OC [Tamatinib] (first compound 0.0004 µM, partner dose 0.4 µM) reads 97.5%; that for `Nc1nc(F)nc2c1ncn2[C@@H]1O[C@H](CO)[C@@H](O)[C@@H]1O` [fludarabine] + COc1cc(N2CCC(N3CCN(C)CC3)CC2)ccc1Nc1ncc(Cl)c(Nc2ccccc2S(=O)(=O)C(C)C)n1 [NVP-TAE684] (first compound 0.2 µM, partner dose 0.08 µM), 4.08%. Still for that read-out and setting: the result for `Nc1ncn([C@H]2C[C@H](O)[C@@H](CO)O2)c(=O)n1` [decitabine] + COc1cc(Nc2ncc(F)c(Nc3ccc4c(n3)NC(=O)C(C)(C)O4)n2)cc(OC)c1OC [Tamatinib] (first compound 0.1 µM, partner dose 0.4 µM) reads 89.4%; that for `Nc1ccn([C@@H]2O[C@H](CO)[C@@H](O)C2(F)F)c(=O)n1` [gemcitabine] + Cc1ccc(NC(=O)c2cccc(N(C)C)c2)cc1NC(=O)c1ccc(O)cc1 [ZM336372] (first compound 0.0004 µM, partner dose 2 µM), 78.7%. Same read-out and setting: the result for `Nc1ncn([C@H]2C[C@H](O)[C@@H](CO)O2)c(=O)n1` [decitabine] + NCC(=O)Nc1ccc(-n2nc(C(F)(F)F)cc2-c2ccc3c(ccc4ccccc43)c2)cc1 [OSU03012] (first compound 0.1 µM, partner dose 1 µM) reads 47.7%.

The next experiment deals with A101D. The description is as above. The note with it: library dose: low library concentration; 72 h.
As for `Nc1ncn([C@H]2C[C@H](O)[C@@H](CO)O2)c(=O)n1` [decitabine] + CC(C)CCN1c2nc(Nc3cc(F)c(O)c(F)c3)ncc2N(C)C(=O)C1C [BID1870] (first compound 0.1 µM, partner dose 0.2 µM), the cell count is 86.9%. The same measure, in the same setting: the result for `Nc1ccn([C@@H]2O[C@H](CO)[C@@H](O)C2(F)F)c(=O)n1` [gemcitabine] + CC(C)CCN1c2nc(Nc3cc(F)c(O)c(F)c3)ncc2N(C)C(=O)C1C [BID1870] (first compound 0.0004 µM, partner dose 0.2 µM) reads 90.5%; that for `Nc1ncn([C@H]2C[C@H](O)[C@@H](CO)O2)c(=O)n1` [decitabine] + CC1(C)NC(=O)N(c2ccc([N+](=O)[O-])c(C(F)(F)F)c2)C1=O [nilutamide] (first compound 0.1 µM, partner dose 1 µM), 85.2%. In the case of `CC(=O)O[C@@]12CO[C@@H]1C[C@H](O)[C@@]1(C)C(=O)[C@H](O)C3=C(C)[C@@H](OC(=O)[C@H](O)[C@@H](NC(=O)OC(C)(C)C)c4ccccc4)C[C@@](O)([C@@H](OC(=O)c4ccccc4)[C@H]21)C3(C)C` [Docetaxel] + CCc1ccc(CCOc2ccc(CC3SC(=O)NC3=O)cc2)nc1 [pioglitazone] (first compound 0.0001 µM, partner dose 2 µM), the cell count worked out at 78.9%. Same read-out and setting: the result for `Nc1ncn([C@H]2C[C@H](O)[C@@H](CO)O2)c(=O)n1` [decitabine] + Cc1cc(N2CCOCC2)cc2[nH]c(-c3c(NC[C@@H](O)c4cccc(Cl)c4)cc[nH]c3=O)nc12 [BMS536924] (first compound 0.1 µM, partner dose 0.2 µM) reads 99.1%; that for `Nc1ncn([C@H]2C[C@H](O)[C@@H](CO)O2)c(=O)n1` [decitabine] + O=S(=O)(c1ccccc1)N(CC(F)(F)F)c1ccc(C(O)(C(F)(F)F)C(F)(F)F)cc1 [T0901317] (first compound 0.1 µM, partner dose 1.4 µM), 80.7%. `Nc1ncn([C@H]2C[C@H](O)[C@@H](CO)O2)c(=O)n1` [decitabine] + COc1cc(N2CCC(N3CCN(C)CC3)CC2)ccc1Nc1ncc(Cl)c(Nc2ccccc2S(=O)(=O)C(C)C)n1 [NVP-TAE684] (first compound 0.1 µM, partner dose 0.08 µM) gave a cell count of 85.8%. `CC(=O)c1c(C)c2cnc(Nc3ccc(N4CCNCC4)cn3)nc2n(C2CCCC2)c1=O` [palbociclib] + Oc1nc(-c2ccc(C(F)(F)F)cc2)nc2c1CSCC2 [XAV939] (first compound 0.04 µM, partner dose 2 µM) came in with a cell count of 63.7%. `Nc1ccn([C@@H]2O[C@H](CO)[C@@H](O)C2(F)F)c(=O)n1` [gemcitabine] + O=c1cc(-c2cccc3c2Sc2ccccc2S3)oc(N2CCOCC2)c1 [KU55933] (first compound 0.0004 µM, partner dose 1 µM) had a cell count of 100%.

In the case of `Nc1ncn([C@H]2C[C@H](O)[C@@H](CO)O2)c(=O)n1` [decitabine] + N#Cc1c(O)c2c(-c3ccc(-c4ccccc4O)cc3)csc2[nH]c1=O [A769662] (first compound 0.1 µM, partner dose 2 µM), the cell count amounted to 87%. For `Nc1nc(F)nc2c1ncn2[C@@H]1O[C@H](CO)[C@@H](O)[C@@H]1O` [fludarabine] + CN(C)S(=O)(=O)c1ccc2c(c1)/C(=C/c1cc3c([nH]1)CCCC3)C(=O)N2 [SU6656] (first compound 0.2 µM, partner dose 0.4 µM), the cell count came out at 76.6%. As to `Nc1ncn([C@H]2C[C@H](O)[C@@H](CO)O2)c(=O)n1` [decitabine] + CCc1ccc(CCOc2ccc(CC3SC(=O)NC3=O)cc2)nc1 [pioglitazone] (first compound 0.1 µM, partner dose 2 µM), the cell count was determined as 80.8%. The same measure, in the same setting: the result for `CC(=O)c1c(C)c2cnc(Nc3ccc(N4CCNCC4)cn3)nc2n(C2CCCC2)c1=O` [palbociclib] + CN(NC(=O)CC(=O)NN(C)C(=S)c1ccccc1)C(=S)c1ccccc1 [STA4783] (first compound 0.04 µM, partner dose 0.006 µM) reads 76.4%. The same measure, in the same setting: the result for `CC(=O)O[C@@]12CO[C@@H]1C[C@H](O)[C@@]1(C)C(=O)[C@H](O)C3=C(C)[C@@H](OC(=O)[C@H](O)[C@@H](NC(=O)OC(C)(C)C)c4ccccc4)C[C@@](O)([C@@H](OC(=O)c4ccccc4)[C@H]21)C3(C)C` [Docetaxel] + CS(=O)(=O)CCNCc1ccc(-c2ccc3ncnc(Nc4ccc(OCc5cccc(F)c5)c(Cl)c4)c3c2)o1 [lapatinib] (first compound 0.0001 µM, partner dose 0.8 µM) reads 76.3%. In turn, `CC(=O)O[C@@]12CO[C@@H]1C[C@H](O)[C@@]1(C)C(=O)[C@H](O)C3=C(C)[C@@H](OC(=O)[C@H](O)[C@@H](NC(=O)OC(C)(C)C)c4ccccc4)C[C@@](O)([C@@H](OC(=O)c4ccccc4)[C@H]21)C3(C)C` [Docetaxel] + c1cc(-c2cnn3cc(-c4ccc(OCCN5CCCCC5)cc4)cnc23)ccn1 [Dorsomorphin] (first compound 0.0001 µM, partner dose 0.4 µM) registered a cell count of 62.2%.

In turn, `CO[C@H]1C[C@@H]2CC[C@@H](C)[C@@](O)(O2)C(=O)C(=O)N2CCCC[C@H]2C(=O)O[C@H]([C@H](C)C[C@@H]2CC[C@@H](OCCO)[C@H](OC)C2)CC(=O)[C@H](C)/C=C(\C)[C@@H](O)[C@@H](OC)C(=O)[C@H](C)C[C@H](C)/C=C/C=C/C=C/1C` [everolimus] + COc1cc2ncnc(Nc3ccc(Oc4ccccc4)cc3)c2cc1OC [SrcI1] (first compound 0.02 µM, partner dose 2 µM) came in with a cell count of 92.7%.

In the case of `Nc1ncn([C@H]2C[C@H](O)[C@@H](CO)O2)c(=O)n1` [decitabine] + COC(=O)c1sccc1S(=O)(=O)Nc1ccc(Nc2ccccc2)cc1OC [GSK0660] (first compound 0.1 µM, partner dose 1 µM), the cell count is 80.9%. Molecule `Nc1nc(F)nc2c1ncn2[C@@H]1O[C@H](CO)[C@@H](O)[C@@H]1O` [fludarabine] + CCN(CC)CCCCNc1ncc2cc(-c3cc(OC)cc(OC)c3)c(NC(=O)NC(C)(C)C)nc2n1 [PD173074] (first compound 0.2 µM, partner dose 0.1 µM) displayed a cell count of 95.3%.

(Values after the supplement of paper PMC4604168 (melanoma cell lines).)
